Assays:
[1] = molecular target: IL-2Rβγ complex (Fc heterodimer based on Knobs in holes: IL-2Rβ-Fc-Knob and IL-2Rγ-Fc-Hole) (human, biotin tag (avi tag)); test: SPR Biacore T200; biotinylated IL-2Rβγ captured on SA chip, molecule in the mobile phase
[2] = molecular target: T1, human PD1 (Catalog No. PD1-H5221, ACRO Biosystem) (human, UniProt Q15116 part only); test: SPR Biacore T200; molecule captured on Protein A chip, human PD1 in the mobile phase, 1:1 binding model
T1 construct: Bought; also called antigen
T1 sequence (Q15116 25-167 limits assumed): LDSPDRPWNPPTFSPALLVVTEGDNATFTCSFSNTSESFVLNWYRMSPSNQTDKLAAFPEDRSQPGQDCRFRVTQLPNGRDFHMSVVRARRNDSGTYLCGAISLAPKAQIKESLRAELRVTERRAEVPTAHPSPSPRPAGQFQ

B1: 2061 (control molecule PD-1-IL2v, derived from US20180326010A1) (other)
heavy 1: EVQLLESGGGLVQPGGSLRLSCAASGFSFSSYTMSWVRQAPGKGLEWVATISGGGRDIYYPDSVKGRFTISRDNSKNTLYLQMNSLRAEDTAVYYCVLLTGRVYFALDSWGQGTLVTVSSASTKGPSVFPLAPSSKSTSGGTAALGCLVKDYFPEPVTVSWNSGALTSGVHTFPAVLQSSGLYSLSSVVTVPSSSLGTQTYICNVNHKPSNTKVDKKV[human IgG1 Fc with changes not listed]GGGGSGGGGSGGGGSAPASSSTKKTQLQLEHLLLDLQMILNGINNYKNPKLTRMLTAKFAMPKKATELKHLQCLEEELKPLEEVLNGAQSKNFHLRPRDLISNINVIVLELKGSETTFMCEYADETATIVEFLNRWITFAQSIISTLT
heavy 2: EVQLLESGGGLVQPGGSLRLSCAASGFSFSSYTMSWVRQAPGKGLEWVATISGGGRDIYYPDSVKGRFTISRDNSKNTLYLQMNSLRAEDTAVYYCVLLTGRVYFALDSWGQGTLVTVSSASTKGPSVFPLAPSSKSTSGGTAALGCLVKDYFPEPVTVSWNSGALTSGVHTFPAVLQSSGLYSLSSVVTVPSSSLGTQTYICNVNHKPSNTKVDKKVEPKSCDKTHTCPPCPAPEAAGGPSVFLFPPKPKDTLMISRTPEVTCVVVDVSHEDPEVKFNWYVDGVEVHNAKTKPREEQYNSTYRVVSVLTVLHQDWLNGKEYKCKVSNKALPAPIEKTISKAKGQPREPQVCTLPPSRDELTKNQVSLSCAVKGFYPSDIAVEWESNGQPENNYKTTPPVLDSDGSFFLVSKLTVDKSRWQQGNVFSCSVMHEALHNHYTQKSLSLSPGK
light: DIVMTQSPDSLAVSLGERATINCKASESVDTSDNSFIHWYQQKPGQSPKLLIYRSSTLESGVPDRFSGSGSGTDFTLTISSLQAEDVAVYYCQQNYDVPWTFGQGTKVEIKRTVAAPSVFIFPPSDEQLKSGTASVVCLLNNFYPREAKVQWKVDNALQSGNSQESVTEQDSKDSTYSLSSTLTLSKADYEKHKVYACEVTHQGLSSPVTKSFNRGEC
Kd [1]: 1.48 nM
koff [1]: 0.000134 s⁻¹
kon [1]: 90400 M⁻¹ s⁻¹
Kd [2]: 0.382 nM
koff [2]: 0.000176 s⁻¹
kon [2]: 460000 M⁻¹ s⁻¹

From patent US20260053898A1 (FORTVITA BIOLOGICS SINGAPORE PTE, published 2026)
